PubChem BioAssay AID485281 (National Center for Advancing Translational Sciences (NCATS), 2010)
The whole screen tested about 350,000 compounds, of which about 260 (0.074%) were called active. The inconclusive results got no clear call from the source; some entries with a clear call stand among them for comparison. Calls follow the shape of the dose curve; as a rule, active = well fitted inhibition curve with a large enough effect; inconclusive = small, poorly fitted or top-dose-only effect; inactive = no such curve, though single readings can be large or run the other way. Where the call is inconclusive, the potency comes from a doubtful curve fit.

biological target: Ferritin light chain (Equus caballus) (UniProt P02791); assay: qHTS Assay for Identification of Novel General Anesthetics; details: apoferritin/1-aminoanthracene competitive binding, fluorescence; series mostly up to 77.5 µM; also: nearly all actives have a fitted effect of over 20% in size
Chain of UniProt P02791 (P02791 whole entry, looked up): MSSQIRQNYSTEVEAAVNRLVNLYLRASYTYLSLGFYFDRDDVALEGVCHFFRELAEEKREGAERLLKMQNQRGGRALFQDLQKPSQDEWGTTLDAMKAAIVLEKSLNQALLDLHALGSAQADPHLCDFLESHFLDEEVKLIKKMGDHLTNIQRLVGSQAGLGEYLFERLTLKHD
How it was run: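 Concentration-response curves derived by four-parameter Hill fitting of normalized fluorescence, where compounds displaced 1-AMA from 10 uM horse apoferritin following a brief 10 min room-temperature incubation; propofol titration acted as positive control.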
Potency is read from the fitted curve at half-maximal effect; tags tell the direction and shape of the fitted curve.

Potency, inactive:
N#CCCSc1ccccc1NC(=O)c1ccc(S(=O)(=O)N2CCCC2)cc1, COc1ccc(Cl)c(NC(=O)NCCN2CCN(c3ccccc3)CC2)c1, COc1ccccc1CNC(=O)c1cc2ccc3ccc(C)[nH]c3c2n1, CC(=O)Nc1cccc(NC(=O)C(=O)NCCc2csc3nc(-c4ccccc4F)nn23)c1, Cc1nc2ccccc2nc1N/N=C/c1ccc(O)cc1, CC1CCCCN1C(=O)CSc1nc2ccccc2nc1Cc1ccc(Cl)cc1 (centres undefined), CC(=O)Nc1ccc(NC(=O)CSc2nnc(-c3cccs3)n2C)cc1, CCCCC(=O)OCc1nc2ccccc2s1, CCN(Cc1nc(-c2ccc(OC)cc2)oc1C)S(=O)(=O)c1ccc(Cl)cc1, COc1ccc(C(=O)/C=C/C(=O)N(Cc2ccc3c(c2)OCO3)C(C(=O)NC2CCCCC2)c2ccncc2)c(O)c1 (centres undefined), COc1ccc(C2=NN(C(=S)Nc3ccccc3)C(c3ccccc3)C2)cc1 (centres undefined), N#C/C(=C\c1ccc(OCc2ccc(C(=O)O)cc2)cc1)C(=O)N1CCOCC1

Potency, inconclusive:
Cc1ccc2cc3cc(C(=O)N(C)c4ccccc4C)oc3nc2c1 35.5 µM [inhibitor, partial curve], O=C(c1ccc2c(=O)n(Cc3ccco3)c(=S)[nH]c2c1)N1CCN(Cc2ccccc2)CC1 20 µM [inhibitor, partial curve], C/C(=N\NC(=O)COc1ccccc1[N+](=O)[O-])c1cccc(NC(=O)c2ccncc2)c1 31.6 µM [inhibitor, partial curve], CC(C)(C)c1ccc(Cn2nnc3c(=O)[nH]c(C4CCCN(C(=O)Cc5cccs5)C4)nc32)cc1 (centres undefined) 12.6 µM [inhibitor, partial curve], COc1ccc(Cn2c3nc4ccccc4nc3c3c(=O)n(Cc4ccco4)c(C)nc32)cc1 3.55 µM [inhibitor, full curve, poor fit], Cc1cccc(Oc2ccc(NC(=O)CCC(=O)OCC(=O)c3ccc(Br)cc3)cc2)c1C 7.94 µM [inhibitor, partial curve], O=C(COc1ccccc1[N+](=O)[O-])Nc1ccc(N2CCN(C(=O)c3cccs3)CC2)cc1 17.8 µM [inhibitor, partial curve], Clc1ccc(OCc2nnc(SCc3nnc(-c4ccccc4)o3)o2)c(Cl)c1 3.55 µM [inhibitor, full curve, poor fit], Cc1ccc(S(=O)(=O)NNC(=O)CCC(=O)Nc2ccccc2)cc1 50.1 µM [inhibitor, single point], Cc1cc(Cl)ccc1Oc1ccc(C(N)=O)cc1[N+](=O)[O-] 15.8 µM [inhibitor, partial curve], Cc1cc(OCc2cc(C(=O)N3CCCCCC3)no2)cc(C)c1Cl 3.98 µM [inhibitor, full curve], COc1cc(C2c3c(-c4ccccc4O)n[nH]c3C(=O)N2CCO)ccc1OCC(C)C (centres undefined) 50.1 µM [inhibitor, partial curve, poor fit], CCCCC(=O)Nc1cccc(NC(=O)c2cccc(Br)c2)c1 12.6 µM [inhibitor, partial curve], Cc1ccc(NC(=O)CN2C(=O)NC(C)(c3ccc(Cl)cc3)C2=O)c(Br)c1 (centres undefined) 22.4 µM [inhibitor, partial curve], Cc1cccc(OCCSc2nnc(-c3ccoc3C)n2C)c1 25.1 µM [inhibitor, partial curve], Cc1cc(C)c2nc(NC(=O)C3CC(=O)N(Cc4ccco4)C3)sc2c1 (centres undefined) 35.5 µM [inhibitor, single point], CCC1CCCCN1c1nc(-c2ccncc2)nc2ccccc12 (centres undefined) 35.5 µM [inhibitor, partial curve], CC1CCN(S(=O)(=O)c2cc(Br)cc(C(=O)NC3=NCCS3)c2)CC1 31.6 µM [inhibitor, partial curve], Cc1ccc(/C=C/C(=O)c2ccccc2)cc1 11.2 µM [inhibitor, partial curve], Cc1ccc(C(=O)NCC(=O)OCC(=O)c2ccc(C)c([N+](=O)[O-])c2)cc1 50.1 µM [inhibitor, single point], Cc1ccc(OCc2nnc(-c3ccccc3)o2)cc1 50.1 µM [inhibitor, single point], Cc1ccc(C(=O)N2c3ccccc3CC2C)o1 (centres undefined) 39.8 µM [inhibitor, single point], Cc1cc(C)c(NC(=O)Cn2c(=O)n(Cc3ccccc3)c(=O)c3c(C)c(C(=O)N(C)C)sc32)c(C)c1 1.41 µM [inhibitor, full curve], COc1cc2c(cc1OC)C(COc1ccccc1OC)N(C(=O)c1ccccc1OC)CC2 (centres undefined) 20 µM [inhibitor, partial curve], CCS(=O)(=O)N1CCc2cc(C(=O)Nc3ccc(OC)cc3OC)ccc21 31.6 µM [inhibitor, single point], O=C(O)C1CC(=O)N(Cc2cccnc2)C1 (centres undefined) 8.91 µM [inhibitor, single point], CCCCc1ccc(NC(=O)CSc2nnc3[nH]c(=O)cc(C)n23)cc1 50.1 µM [inhibitor, single point], Cc1cc(C)c2c(c1)OC(O)(C(F)F)CC2=O (centres undefined) 28.2 µM [inhibitor, partial curve], Clc1ncn(C23CC4CC(CC(C4)C2)C3)n1 11.2 µM [inhibitor, partial curve], O=C(COc1ccccc1)Nc1ccc(S(=O)(=O)N2CCCC2)cc1 35.5 µM [inhibitor, partial curve], COc1ccc(CCNCC(O)COc2cccc(Br)c2)cc1 (centres undefined) 28.2 µM [inhibitor, single point], CCOC(=O)c1c(Cc2cccc(Cl)c2)c[nH]c1C 35.5 µM [inhibitor, partial curve], C=CCc1ccc(OCCOc2ccc(/C=N/n3cnnc3)cc2OCC)c(OC)c1 14.1 µM [inhibitor, partial curve], O=C(OCc1csc(Nc2ccccc2)n1)c1ccc(Cl)cc1 31.6 µM [inhibitor, partial curve], O=C(CN1C(=O)NC2(CCCCCC2)C1=O)Nc1ccc2c(c1)CCC2 35.5 µM [inhibitor, partial curve], O=C(c1ccco1)N(Cc1cccnc1)c1nc2c(F)cccc2s1 39.8 µM [inhibitor, partial curve], Cc1cc(C)c(Cn2c(C)c(CNCc3ccccc3C)c(C(=O)O)c2C)c(C)c1 7.08 µM [inhibitor, partial curve], Cc1ccsc1/C=N/NC(=O)CNC(=O)c1c(F)cccc1Cl 25.1 µM [inhibitor, partial curve], CCOc1ccc(C(=O)N2CCN(Cc3cc(=O)n4nc(-c5cccc(OC)c5)sc4n3)CC2)cc1 31.6 µM [inhibitor, partial curve], O=C(CN1C(=O)NC2(CCCCCCC2)C1=O)NCc1ccc2c(c1)OCO2 20 µM [inhibitor, partial curve], CCOCCCNC(=O)C(c1ccc(Cl)cc1)N(Cc1ccc2c(c1)OCO2)C(=O)c1ccccc1O (centres undefined) 17.8 µM [inhibitor, partial curve], C=CCn1cc(C(=O)NCc2ccco2)c(=O)c2cc(S(=O)(=O)N3CCCCCC3)ccc21 39.8 µM [inhibitor, partial curve], COc1ccc(N2CCN(C(=O)c3cccn4c(=O)c5ccc(Cl)cc5nc34)CC2)cc1 6.31 µM [inhibitor, partial curve], Cc1ccccc1SCC(=O)Nc1cccc(C#N)c1 22.4 µM [inhibitor, partial curve], Nc1ccc(SC(F)(F)F)cc1 22.4 µM [inhibitor, partial curve], CCN(c1ccccc1)S(=O)(=O)c1ccc(Cl)c(C(=O)OCC(=O)c2[nH]c(C)c(C(C)=O)c2C)c1 17.8 µM [inhibitor, single point], O=C(CCc1ccccc1)Nc1ccc2c(c1)OCCO2 35.5 µM [inhibitor, partial curve], COCCn1nc2cc(C(=O)NCC34CC5CC(CC(C5)C3)C4)ccc2c1OC 25.1 µM [inhibitor, partial curve], O=C(Cc1cccc(C(F)(F)F)c1)Nc1cccc(S(=O)(=O)N2CCCC2)c1 11.2 µM [inhibitor, full curve, poor fit], CC1CCN(C(=O)Nc2cccc(NC(=O)N3CCC(C)CC3)c2)CC1 44.7 µM [inhibitor, partial curve], COc1ccc(-c2ccc(NS(=O)(=O)c3ccc([N+](=O)[O-])cc3)cc2)nn1 35.5 µM [inhibitor, partial curve], COc1ccc(CNC(=O)C2=CC(c3ccc(OC)cc3)=NS(=O)(=O)N2C)cc1 35.5 µM [inhibitor, single point]
